Laboratory results: PMC10668032
This is one part of the list. At the low end of the ranking the order means little.

biological target: SIX1 homeodomain (reference allele) (UniProt Q15475); assay: universal protein binding microarray; conditions: Universal all-10-mer PBM (8x60K, AMADID 030236), 300 nM GST-tagged protein, Alexa Fluor 488 anti-GST; buffer, salt, pH and temperature not stated; high values mean tight binding; most listed sequences are background and not binding sites; double strand, one strand shown

**Q.** How did the binding signal turn out when AAGCCAAT was run?
**A.** -0.0182 E-score

**Q.** With AGTACCCG as the sequence, how does the binding signal read?
**A.** 0.0757 E-score

**Q.** Which binding signal does the source give for CTAGCAAC here?
**A.** -0.11 E-score

**Q.** ACAAGCAG was tested. Which binding signal did it give?
**A.** -0.0339 E-score

**Q.** With AACTCCTG as the sequence, how does the binding signal read?
**A.** -0.116 E-score

**Q.** For AGCTGCCA, which binding signal is on record?
**A.** -0.181 E-score

**Q.** CTCCCACC was tested. Which binding signal did it give?
**A.** -0.221 E-score

**Q.** GGACCGGA was tested. Which binding signal did it give?
**A.** -0.0419 E-score

**Q.** Which binding signal does the source give for GAGCCATA here?
**A.** 0.183 E-score

**Q.** GGCAGTAC was tested. Which binding signal did it give?
**A.** -0.237 E-score

**Q.** Which binding signal does the source give for CGGAAACG here?
**A.** -0.103 E-score

**Q.** How did the binding signal turn out when CGAGAGCC was run?
**A.** -0.192 E-score

**Q.** Which binding signal does the source give for CAAACTAC here?
**A.** -0.11 E-score

**Q.** How did the binding signal turn out when GCCCACAC was run?
**A.** -0.163 E-score

**Q.** Which binding signal does the source give for CTGATTTA here?
**A.** -0.0655 E-score

**Q.** For TCCGCAAA, which binding signal is on record?
**A.** -0.107 E-score

**Q.** With CCATTCAG as the sequence, how does the binding signal read?
**A.** -0.0601 E-score

**Q.** Which binding signal does the source give for AAGGTCCC here?
**A.** -0.222 E-score

**Q.** With AGAGATCC as the sequence, how does the binding signal read?
**A.** 0.369 E-score

**Q.** For GCCAGTAC, which binding signal is on record?
**A.** -0.146 E-score

**Q.** How did the binding signal turn out when AAAGTCAG was run?
**A.** -0.33 E-score

**Q.** How did the binding signal turn out when CGGTTTAA was run?
**A.** -0.00179 E-score

**Q.** How did the binding signal turn out when AACGTAGG was run?
**A.** -0.167 E-score

**Q.** Which binding signal does the source give for CAACACTC here?
**A.** 0.0138 E-score

**Q.** For ATTTGTTA, which binding signal is on record?
**A.** -0.159 E-score

**Q.** With CACTCGCG as the sequence, how does the binding signal read?
**A.** -0.0828 E-score

**Q.** Which binding signal does the source give for CTCAAGAC here?
**A.** -0.112 E-score

**Q.** AATGGTAT was tested. Which binding signal did it give?
**A.** 0.381 E-score

**Q.** How did the binding signal turn out when GCAGGGCA was run?
**A.** -0.00363 E-score

**Q.** Which binding signal does the source give for CCTCAGAC here?
**A.** 0.0208 E-score

**Q.** How did the binding signal turn out when AGTATAAA was run?
**A.** 0.148 E-score

**Q.** For ATGTCCTC, which binding signal is on record?
**A.** -0.0138 E-score

**Q.** Which binding signal does the source give for CGGGACCA here?
**A.** -0.372 E-score

**Q.** GCAATCCC was tested. Which binding signal did it give?
**A.** 0.136 E-score

**Q.** How did the binding signal turn out when ACCCTAGC was run?
**A.** -0.00779 E-score

**Q.** AGTGGCGG was tested. Which binding signal did it give?
**A.** -0.0833 E-score

**Q.** How did the binding signal turn out when AGACGACG was run?
**A.** 1e-05 E-score

**Q.** For CTCGTCAG, which binding signal is on record?
**A.** -0.0978 E-score

**Q.** Which binding signal does the source give for CTTGGCCA here?
**A.** -0.16 E-score

**Q.** Which binding signal does the source give for CAACGCCC here?
**A.** -0.0301 E-score

**Q.** CGTTGGTC was tested. Which binding signal did it give?
**A.** -0.162 E-score

**Q.** How did the binding signal turn out when ACGACGCG was run?
**A.** -0.227 E-score

**Q.** How did the binding signal turn out when AAGTCGCA was run?
**A.** -0.113 E-score

**Q.** For CTAGCGTA, which binding signal is on record?
**A.** -0.0947 E-score

**Q.** With ACTATAGT as the sequence, how does the binding signal read?
**A.** 0.0548 E-score

**Q.** ATTCACCG was tested. Which binding signal did it give?
**A.** -0.12 E-score

**Q.** GTCTAATA was tested. Which binding signal did it give?
**A.** 0.0935 E-score

**Q.** For CCAACGTC, which binding signal is on record?
**A.** -0.118 E-score

**Q.** With AAGGAGAA as the sequence, how does the binding signal read?
**A.** -0.0314 E-score

**Q.** ACAACCCA was tested. Which binding signal did it give?
**A.** -0.0153 E-score

**Q.** With GTAACTGA as the sequence, how does the binding signal read?
**A.** -0.246 E-score

**Q.** Which binding signal does the source give for ATGTACGA here?
**A.** 0.148 E-score

**Q.** For CCTTGCAC, which binding signal is on record?
**A.** -0.104 E-score

**Q.** How did the binding signal turn out when CCACCTCA was run?
**A.** -0.158 E-score

**Q.** For CGAATTTA, which binding signal is on record?
**A.** -0.0905 E-score

**Q.** How did the binding signal turn out when GGGTTAAA was run?
**A.** 0.116 E-score

**Q.** How did the binding signal turn out when ACGCTCAC was run?
**A.** -0.0572 E-score

**Q.** How did the binding signal turn out when GGACGGGA was run?
**A.** -0.0692 E-score

**Q.** With CGTCAAGC as the sequence, how does the binding signal read?
**A.** -0.097 E-score

**Q.** How did the binding signal turn out when CATGCACG was run?
**A.** -0.0192 E-score

**Q.** Which binding signal does the source give for AAATCGTA here?
**A.** -0.0165 E-score

**Q.** For TTTCCAAA, which binding signal is on record?
**A.** -0.223 E-score

**Q.** How did the binding signal turn out when TATACATA was run?
**A.** 0.246 E-score

**Q.** How did the binding signal turn out when ACTAGGTA was run?
**A.** -0.0378 E-score

**Q.** Which binding signal does the source give for ATATATAT here?
**A.** 0.336 E-score

**Q.** Which binding signal does the source give for TGAGAACA here?
**A.** -0.00591 E-score

**Q.** With AATGGCCC as the sequence, how does the binding signal read?
**A.** -0.33 E-score

**Q.** How did the binding signal turn out when ACGGGGCT was run?
**A.** -0.0181 E-score

**Q.** How did the binding signal turn out when AACAGCTT was run?
**A.** -0.305 E-score

**Q.** How did the binding signal turn out when TAGTCGAA was run?
**A.** -0.115 E-score

**Q.** With TCCCACCA as the sequence, how does the binding signal read?
**A.** -0.0654 E-score

**Q.** CGGAGGGC was tested. Which binding signal did it give?
**A.** -0.0865 E-score

**Q.** For AGGTGAAT, which binding signal is on record?
**A.** -0.063 E-score

**Q.** ATGGCTTG was tested. Which binding signal did it give?
**A.** -0.00628 E-score

**Q.** GGGTGTGA was tested. Which binding signal did it give?
**A.** 0.158 E-score

**Q.** With AATAGTCT as the sequence, how does the binding signal read?
**A.** -0.15 E-score

**Q.** ACAAGTCA was tested. Which binding signal did it give?
**A.** -0.241 E-score

**Q.** For ACATCCGT, which binding signal is on record?
**A.** -0.109 E-score

**Q.** CACTATAC was tested. Which binding signal did it give?
**A.** 0.203 E-score

**Q.** How did the binding signal turn out when CCACGCCG was run?
**A.** -0.15 E-score

**Q.** How did the binding signal turn out when CGGGGCCA was run?
**A.** 0.0671 E-score

**Q.** With CTGTAACC as the sequence, how does the binding signal read?
**A.** -0.117 E-score

**Q.** Which binding signal does the source give for TCCGGCAA here?
**A.** -0.0691 E-score

**Q.** For AAGACCCA, which binding signal is on record?
**A.** -0.192 E-score

**Q.** With CGACCCCG as the sequence, how does the binding signal read?
**A.** 0.139 E-score

**Q.** CTCGGAAG was tested. Which binding signal did it give?
**A.** 0.0342 E-score

**Q.** How did the binding signal turn out when AAGTCCCG was run?
**A.** -0.168 E-score

**Q.** With AAACTTAA as the sequence, how does the binding signal read?
**A.** -0.213 E-score

**Q.** Which binding signal does the source give for CAAGGGAG here?
**A.** 0.0302 E-score

**Q.** AAACAAGA was tested. Which binding signal did it give?
**A.** 0.0036 E-score

**Q.** CGAAACAC was tested. Which binding signal did it give?
**A.** -0.0766 E-score

**Q.** Which binding signal does the source give for ATCCAGCA here?
**A.** 0.198 E-score

**Q.** With GAGAAGCC as the sequence, how does the binding signal read?
**A.** 0.0549 E-score

**Q.** For GCGGCCGA, which binding signal is on record?
**A.** -0.1 E-score

**Q.** Which binding signal does the source give for GATAAACA here?
**A.** -0.0822 E-score

**Q.** Which binding signal does the source give for AGTTCCAG here?
**A.** -0.179 E-score

**Q.** How did the binding signal turn out when CGCGATAG was run?
**A.** 0.199 E-score

**Q.** For AAGATGTG, which binding signal is on record?
**A.** -0.111 E-score

**Q.** For CGTGGATA, which binding signal is on record?
**A.** 0.362 E-score

**Q.** For AAGGGGTG, which binding signal is on record?
**A.** -0.0211 E-score

**Q.** Which binding signal does the source give for TATTGGGA here?
**A.** 0.135 E-score

**Q.** How did the binding signal turn out when TACATGCA was run?
**A.** -0.0231 E-score

**Q.** CTGTTCGA was tested. Which binding signal did it give?
**A.** -0.153 E-score

**Q.** For AAACGCCC, which binding signal is on record?
**A.** -0.00304 E-score

**Q.** Which binding signal does the source give for CCTGATTC here?
**A.** 0.0735 E-score

**Q.** Which binding signal does the source give for GAACACAA here?
**A.** 0.000545 E-score

**Q.** For CATCAGCG, which binding signal is on record?
**A.** 0.0156 E-score

**Q.** For AAGAACGA, which binding signal is on record?
**A.** 0.0109 E-score

**Q.** Which binding signal does the source give for CCATTTTA here?
**A.** -0.124 E-score
